Read counts are not given, so values of variants with three or more changes are uncertain.

The chains are these.
B1: LINE1-full (parent)
chain: UACGUAGGUGGUUUUCCCCUGAUAGUGCUAAGGGGGCCUGGAAGUUUGGACUGGGCAGAGCUCAACACAGCGUGGCAAAGUGGCUGUGGCUAGACUGCCUCUCUGGAUUCCUCGUCACUCAGCAGGGCAUCUCUGAGAGAAAUGCC

Variants of B1 are the subject of the data set. As to the kind of experiment: self-cleavage, relative activity (ratio to wild type); higher = more cleavage; in vitro, sequencing; the parent is a self-cleaving ribozyme.
Take UACGUAGGUGGUUUUCCCCUGGUAGUGCUAAGGGGGCCUAGAAGUUUGGACUGGGCAGAGCUCAACACAGCGUGGCAAAGUGGCUGUGGCUAGACUGCCUCUCUGGAUCCCUCGUCACUCAGCAGGGCAUCUCUGAGAGAAAUGCC [A22G G40A U109C]: the self-cleavage is 0.83. UACGUAGGUGGUUUUCCCCUGGUAGUGCUAAGGGGGCCUGGAAGUUUGGACUGGGCAGAGCUCAACACAGCGUGGCAAAGUGGCUGUGGCUAGACUGCCUCUCUGGAUUCCUCGUCGCUCAGCAGGGCAUCUCUGAGGGAAAUGCC [A22G A117G A138G]: the self-cleavage is 1.31.

For the variant UACGUAGGUGGUUUUCCCCUGGUAGUGCUAAGGGGGCCUGGAAGUUUGGACUGGGCAGAGCUCAACACAGCGUGGCAAAAUGGCUGUGGCUAGACUGCCUCUCUGGAUACCUCGUCACUCAGCAGGGCACCUCUGAGAGAAAUGCC [A22G G80A U109A U130C], the self-cleavage stood at 1.97. Take UACGUAGGUGGUUUUCCCCUGGUAGUGCUAAGGGGGCCUGGAAGUUUGGACUGGGCAGAGCUCAACACAGCGUGGUAAAGUGGCUGUGGCUAGACUGCCUCUCUGGAUUCCUCGUCACUCAGCAGGGCGUCUCUGAGAGAAAUGCC [A22G C76U A129G]: the self-cleavage amounted to 1.88.

In the case of UACGUAGGUGGUUUUCCCCUGGUAGUGCUAAGGAGGCCUGGAAGUUUGGACUGGGCAGAGCUCAACACAGCGUGGCAAAGCGGCUGUGGCUAGACUGCCUCUCUGGAUUCCUCGUCACUCAGCAGGGCAUCUCUGAGAGAAAUGCC [A22G G34A U81C], the self-cleavage was 0.96.

On to UACGUAGGUGGUUUUCCCCUGGUAGUGCUAAGGGGGCCUGGAAGUUUGGACUGGGCAGAGCUCAACACAGCGUGGCAAAGUGGCUGUGGCUAGACUGCCUCUCUGGAUUCCUCGUCGCACAGCAGGGCAUCUCUGAGAGAAAUGCC [A22G A117G U119A], for which the self-cleavage stood at 1.59. Then UACGUAGGUGGUUUUCCCCUGGUAGUGCUAAGGGGGCCUGGAAGUUUGGACUGGGCAGAGCUCAACACAGCGUGGCAAAGUGGCUGUGACUGGACUGCCUCUCUGGAUUCCUCGUCACUCAGCAGGGCAUCUCUGAGAGAAAUGCC [A22G G89A A92G], with 0.21; and UACGUAGGUGGUUUUCCCCUGGUAGUGCUAAGGGGACCUGGAAGUUUGGACUGGGCAGAGCUCAACACAGCGUGGCAGAGUGGCUGUGGCUAGACUGCCUCUCUGGAUUCCUCGUCACUCAGCAGGGCAUCUCUGAGAGAAAUGCC [A22G G36A A78G], with 0.72; and UACGUAGGUGGUUUUCCCCUGGUAGUGCUAAGGGGGCCUGGAAGUUUGGACUGGGCAUAGCUCAACACAGCGUGGCAAGGUGGCUGUGGCUAGACUGCCUCUCUGGAUUCCUCGUCACUCAGCAGGGCAUCUCUGAGAGAAAUGCC [A22G G58U A79G], with 0.08.

As for UACGUAGGUGGUUUUCCCCUGGUAGUGCUAAGGGGGCCUGGAAGUUUGGACUGGGCAGAGCUCAAUACAGCGUGGCAAAGUGGCAGUGGCUAGACUGCCUCUCUGGAUUCCUCGUCACUCAGCAGGGCAUCUCUGAGAGGAAUGCC [A22G C66U U85A A140G], the self-cleavage was 0.04. The same measure for UACGUAGGUGGUUUUCCCCUGGUAGUGCUAAGGGGGCCUGGAAGUUUGGACUGGGCAGAGCUAAACACAGCGUGGCAAAGUGGCUGUGGCUAGACUGCCUCCCUGGAUUCCUCGUCACUCAGCAGGGCGUCUCAGAGAGAAAUGCC [A22G C63A U102C A129G U134A]: 0.15; for UACGUAGGUGGUUUUCCCCUGGUAGUGCUAAGGGGGCCUGGAAGUUUGGACUGGGCAGAGCUCAACACAGCGUGGCAAAGUGGCUGUGGCUAGACUGCCUCUCUGGAUUCCUCGUCACUCAGCAGGGCAUUUCUGAGAGAAACGCC [A22G C131U U143C]: 1.25; for UACGUAGGUGGUUUUCCCCUGGUAGUGCUAAGGGGGCCUGGAAGUUUGGACUAGGCAGAGCUCAACACAGCGUGGCAAAGUGGCUGUGGCUAGACUGCCUCUCUGGAUUCCUCGUCACUCAGUAGGGCAUCUCUGAGAGAAAUGCC [A22G G53A C123U]: 0.98. As for UACGUAGGUGGUUUUCCCCUGGUAGUGCUAAGAGGGCCUGGAAGUUUGGACUGGGCAGAGCUCGACACAGCGUGGCAAAGUGGCUUUGGCUAGGCUGCCUCUCUGGAUUCCUCGUCACUCAGCAGGGCAUCUCUGAGAGAAAUGCC [A22G G33A A64G G86U A94G], the self-cleavage came to 0.11. As for UACGUAGGUGGUUUUCCCCUGGUAGUGCUAAGGGGGCCUGGAAGUUUGGACUGGGCAGAGCUCAACACAGCGUGGCAAAGUGGCUGUGGCUAGACUGCCUCUCUGGAUUCCUCGUCGCUCGGCAGGGCAUCUCUGAGAGAAAUGCC [A22G A117G A121G], the self-cleavage came to 0.48. Then UACGUAGGUGGUUUUCCCCUGGUAGUGCUAAGGGGGCUUGGAAGUCUGGACUGGGCAGAGCUCAACACAGCGUGGCAAAGUGGCUGUGGCUAGACUGCCUCUCUGGUUUCCUCGUCACUCAGCAGGGCAUCUCUGGGAGAAAUGCC [A22G C38U U46C A107U A136G], with 0.78; and UACGUAGGUGGUUUUCCCCUGGUAGUGCUAAGGGGGCCUGGAAGUUUGGACUGGGCAGAGCUCAACACAGCGUGGCAAAGUGGCUGUGGCUAGACUGCCUCUCUGGGUUCCUCGUCACUCAGCAGGGCAUCUCUGAGAGAAUAGCC [A22G A107G A142U U143A], with 1.86.

Turning to UACGUAGGUGGUUUUCCCCUGGUAGUGCUAAGGGGGCCUGGAAGUUUGGACUGGGCAGAACUCAACACAGCGUGGCAAAGUGGCUGUGGCUGGACUGCCUCUCUGGAUUCCUCGUCACUCAGCAGGGCAUCUCUGAGAGAAAUGCC [A22G G60A A92G], the self-cleavage stood at 0.14. Take UACGUAGGUGGUUUUCCCCUGGUAGUGCUAAGGGGGCCUGAAAGUUUGGACUGAGCAGAGCUCAACACAGCGUGGCAAAGUGGCUGUGGCUAGACUGCCUCUCUGGAUUCCUCGUCACUCAGCAGGGCAUCUCUGAGAGAAAUGCC [A22G G41A G54A]: the self-cleavage was determined as 0.54.

For the origin of these results see the RNAGym collection of RNA variant scans (doi:10.7554/elife.90254).
